Results published in publication PMC4336329 (PLoS ONE, 2015).
The campaign covered roughly 310,000 compounds. About 2,200 (0.71%) showed an effect of 50% or more. Effects have a minus sign here. Some of the results follow.

target: human ether-à-go-go-related gene (hERG) potassium channel (human, UniProt Q12809); assay: primary screen, population patch clamp on CHO cells stably expressing hERG
Sequence (Q12809 whole entry, looked up): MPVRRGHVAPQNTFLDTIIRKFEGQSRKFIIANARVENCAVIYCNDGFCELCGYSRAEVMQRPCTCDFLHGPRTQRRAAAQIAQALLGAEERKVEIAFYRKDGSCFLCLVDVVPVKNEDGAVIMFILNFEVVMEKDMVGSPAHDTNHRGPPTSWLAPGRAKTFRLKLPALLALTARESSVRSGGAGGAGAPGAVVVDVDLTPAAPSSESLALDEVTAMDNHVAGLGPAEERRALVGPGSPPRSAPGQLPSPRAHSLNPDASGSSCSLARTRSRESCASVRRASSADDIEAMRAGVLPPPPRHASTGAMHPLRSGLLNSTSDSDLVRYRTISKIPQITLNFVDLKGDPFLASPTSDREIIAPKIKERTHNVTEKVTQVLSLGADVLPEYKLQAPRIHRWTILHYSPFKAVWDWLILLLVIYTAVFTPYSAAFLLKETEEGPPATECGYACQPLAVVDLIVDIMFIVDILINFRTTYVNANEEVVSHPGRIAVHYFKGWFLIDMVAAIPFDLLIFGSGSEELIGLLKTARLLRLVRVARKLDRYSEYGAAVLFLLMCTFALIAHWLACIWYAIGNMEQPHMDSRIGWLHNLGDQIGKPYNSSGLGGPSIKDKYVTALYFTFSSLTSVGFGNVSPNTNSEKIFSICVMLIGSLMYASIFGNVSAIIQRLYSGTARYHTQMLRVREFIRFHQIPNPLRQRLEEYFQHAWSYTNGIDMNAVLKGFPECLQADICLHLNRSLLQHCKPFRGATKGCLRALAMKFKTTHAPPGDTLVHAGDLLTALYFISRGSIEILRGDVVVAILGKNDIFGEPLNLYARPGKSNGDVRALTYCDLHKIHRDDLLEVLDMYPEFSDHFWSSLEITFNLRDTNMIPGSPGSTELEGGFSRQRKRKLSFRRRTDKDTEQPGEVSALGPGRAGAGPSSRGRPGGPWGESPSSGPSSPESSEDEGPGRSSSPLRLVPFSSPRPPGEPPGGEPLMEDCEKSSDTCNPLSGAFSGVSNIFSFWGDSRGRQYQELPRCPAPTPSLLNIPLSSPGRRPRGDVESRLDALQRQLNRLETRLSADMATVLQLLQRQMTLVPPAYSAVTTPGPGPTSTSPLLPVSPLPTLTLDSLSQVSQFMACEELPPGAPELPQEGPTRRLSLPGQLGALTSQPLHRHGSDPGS

Compound | hERG current change (%, negative = inhibition) at 1uM
Cl.O=C(Cc1ccc(Cl)cc1)NCCN1CCCC1 | -7.67%
COc1ccccc1NS(=O)(=O)c1ccc(C)c(NC(=O)NCCCl)c1 | -3.74%
S=C(Nc1ccccc1)N1CCCN1c1ccccc1 | 20.1%
Cn1cc(CN2CCN(c3ccccc3)CC2)c2ccccc21 | -12.4%
CC(=O)/C(N=Nc1ccc(SC(F)F)cc1)=C(\C)O | 7.35%
COc1ccccc1N1CCN(Cc2ccc(OC)c(OC)c2OC)CC1 | -10.5%
CCOC(=O)c1c(C)[nH]c(C(=O)/C(C#N)=C/c2ccc(OC(F)F)c(OC)c2)c1C | 18.6%
Cc1ccc(-c2cc(C(=O)O)n[nH]2)o1 | 12.5%
Cc1ccccc1NCC(=O)N/N=C\c1ccc2c(c1)OCO2 | 9.17%
COCCCNC(=O)c1c[nH]c2ccc(S(=O)(=O)N3CCC4(CC3)OCCO4)cc2c1=O | 15.1%
O=C(CCN1C(=O)c2ccccc2C1=O)Nc1ccc(-c2nc3ccccc3s2)cc1 | 23%
Cc1ccccc1NC(=O)CSCCO | 7.27%
CC(Cc1cccs1)NC(=S)Nc1ccc(Cl)cc1 (stereo not drawn) | 10.9%
CN(C(=O)CSc1ccccc1C(=O)O)C1CCCCC1 | -5.12%
CCNC(=O)COC(=O)/C=C/c1c(C)nn(Cc2cccc(OC)c2)c1Cl | 13.7%
c1csc(-c2cn3ccc4ccccc4c3n2)c1 | 12%
Br.C=CCN1CCc2c(cc(O)c(O)c2Cl)C(c2ccccc2)C1 (stereo not drawn) | -12.2%
CN(C)S(=O)(=O)c1cccc(NC(=O)c2ccc(N3CCOCC3)c([N+](=O)[O-])c2)c1 | 12.1%
CCOCCCNC(=O)CSCc1nc(-c2ccc(SC)cc2)oc1C | 9.11%
O=C(O)c1cc(Oc2ccc(C(F)(F)F)cc2Cl)ccc1[N+](=O)[O-] | 16%
Cc1nc(Oc2ccc(Cl)cc2)c2oc3ccccc3c2n1 | 9.34%
O=C(Cc1cc(=O)[nH]c(=O)[nH]1)NCCN1CCOCC1 | 8.01%
COc1ccc(Cl)cc1C(=O)NCc1cnn(C)c1C | 3.02%

Compound | hERG current change (%, negative = inhibition) at 1uM
CCOc1ccc(CCNC(=O)CN2C(=O)CCSc3ccccc32)cc1OCC | 7.66%
CCOC(=O)C1CCN(C(=O)c2ccc3c(c2)S(=O)(=O)c2ccccc2C3=O)CC1 | -12.7%
CSc1ncccc1C(=O)Nc1cccc(C)n1 | -4.84%
COc1ccc(NC(=O)c2ccc(OC)c(S(=O)(=O)N3CCCCC3C)c2)cn1 (stereo not drawn) | 4.14%
COc1cc(C(C(=O)NC2CCCC2)N(Cc2ccco2)C(=O)c2snc(C(N)=O)c2N)cc(OC)c1OC (stereo not drawn) | 2.71%
O=C(COC(=O)c1cc2ccccc2o1)NCc1ccco1 | 9.22%
O=CC1=C(N2CCOCC2)/C(=C\c2ccccc2)CC1 | 20.8%
O=C(NNC(=O)c1ccccc1OCc1ccc(F)cc1)c1ccccc1O | 25.3%
Cn1c(SCCCC(=O)c2ccc(Br)cc2)nnc1-c1ccncc1 | -51.1%
Cc1ccc2c(c1)OC(=O)CC2c1ccccc1 (stereo not drawn) | 3.63%
COCCN(C(=O)CSc1nc(N)cc(=O)[nH]1)c1c(N)n(Cc2ccccc2)c(=O)[nH]c1=O | 7.66%
Cc1ccc(-n2c(C)cc(C(=O)CN3C(=O)C(=O)N(C4CCCC4)C3=O)c2C)cc1 | 7.74%
S=c1[nH]nc(-c2cccnc2)n1-c1ccc2c(c1)OCCO2 | 14.9%
COc1cccc2cc(S(=O)(=O)c3ccccc3)c(=Nc3ccc4c(c3)OCCO4)oc12 | 8.49%
COC(=O)c1cc2ccccc2c(-c2c(OC)c(C(=O)OC)cc3ccccc23)c1OC | 8.13%
Cc1ccc(NC(=O)Cn2nnc(C(=O)NCc3cccs3)c2N)cc1F | 15.9%
CC(Sc1ccc(Cl)cc1)C(=O)Nc1ccccc1C(=O)N1CCOCC1 (stereo not drawn) | 3.5%
Cc1ccc(CCNC(=O)CN(c2cc(C)cc(C)c2)S(=O)(=O)c2c(C)noc2C)cc1 | 15.2%
O=C(Nc1ccc(F)cc1)c1cccnc1 | 11.7%
C[C@H]1CC[C@]2(O[C@H](CCO)C[C@@H](O)[C@@H]2O)O1 | 10.7%
O=C(Nc1ccc(-c2ccc3nncn3n2)cc1)c1ccc(Br)o1 | -1.44%
O=C(N/N=C/c1cc(Br)ccc1OC(=O)c1ccc(Br)cc1)c1ccncc1 | 7.9%
CCCOc1ccc(C(=O)NCCN2CCOCC2)cc1.Cl | 25%

Compound | hERG current change (%, negative = inhibition) at 1uM
C/C(N)=C(/C#N)C(=O)COC(=O)CNS(=O)(=O)c1ccc(F)c(F)c1F | 12.6%
CCC(C)(C(=O)NC1CCCCC1)N(Cc1ccco1)C(=O)CC1NC(=O)NC1=O (stereo not drawn) | 8.75%
Oc1ccc(Cl)cc1/C=N/c1nc2ccccc2[nH]1 | 12.3%
Cc1ccc(S(=O)(=O)N2CCCCC2)cc1C(=O)NCCN1CCOCC1 | 9.5%
Cc1nc(CC(C)C)cc(C(=O)N2CCCC(CNS(=O)(=O)c3cccs3)C2)n1 (stereo not drawn) | 5.44%
Cc1c(C)c2ccc(O[C@@H]3O[C@H](CO)[C@@H](O)[C@H](O)[C@H]3O)c(C)c2oc1=O | 10.6%
c1ccc(Nc2nnc(-c3cccc4ccccc34)o2)cc1 | 9.72%
CCOC(=O)CSc1nc2cc(C(=O)NCc3ccco3)ccc2c(=O)n1C1CCCCC1 | 9.64%
Cc1ccccc1-c1cc(C(=O)O)nn1CC1CC(c2cccc([N+](=O)[O-])c2)=NO1 (stereo not drawn) | 10.4%
CC(NC(=O)COC(=O)COc1cccc2c1OC(C)(C)C2)c1ccccc1 (stereo not drawn) | 9.46%
COc1cccc(NS(=O)(=O)c2ccc3c(c2)N(C(C)=O)CCO3)c1 | 18.4%
COc1cccc(OCc2cc(C(=O)N3CCN(C4CCCCC4)C(=O)C3)no2)c1 | 11.1%
O=C(CN1CCCCCCC1)Nc1cc(Cl)cc(Cl)c1 | 3.21%
CCN1CCCC1CNC(=O)CCNC(=O)c1cc(OC)c(OC)c(OC)c1 (stereo not drawn) | 6.62%
CC(=O)Nc1ccc(NC(=O)CSc2nnc(CC(C)O)n2-c2ccccc2)cc1 (stereo not drawn) | 12.2%
C=CCn1c(O)c(C(CC)=NCC2CCCO2)c(=O)[nH]c1=O (stereo not drawn) | 10.2%
CC(=O)NCC1CCCN(C(=O)c2ccc(OC3CCN(Cc4ccccn4)CC3)cc2)C1 (stereo not drawn) | 10.9%
c1ccc(Nc2nc3ccccc3[nH]2)nc1 | 5.9%
CN(C1CCCCC1)S(=O)(=O)c1ccc(S(=O)(=O)N2CCCC2)cc1 | 3.2%
C=CCn1c(=O)c(C=Nc2cccnc2Cl)c(O)n(CCCC)c1=O | 2.63%
Cc1cc(C)c(C(N)=O)c(Nc2ccc(F)cc2)n1 | 16.3%
Cc1ccc(NC(=O)CS(=O)CC(=O)NC(C)CCc2ccco2)cc1Cl (stereo not drawn) | -4.83%
Cc1cc(C)c(NC(=O)CN(C)C(C)C(=O)N2CCc3ccccc32)c(C)c1 (stereo not drawn) | -2.31%

Compound | hERG current change (%, negative = inhibition) at 1uM
Cc1ccccc1S(=O)(=O)Nc1ncnc2ccccc12 | 11.9%
CC(C)C(=O)Nc1cccc(-c2nc3ccccc3c(=O)o2)c1 | -2.78%
NC(=O)CSc1nnc(-c2ccc(S(=O)(=O)N3CCOCC3)cc2)n1CC1CCCO1 (stereo not drawn) | 2.57%
c1ccc2nc(-c3ccc4c(c3)OCO4)ccc2c1 | 13.7%
COc1ccc(C2=NO[C@@](CC(=O)O)(C(=O)Nc3ccc4c(c3)OCCO4)C2)cc1 | 11.2%
OCCN1CCN(c2nc(-c3ccccc3)c3cc(Br)ccc3n2)CC1 | 3.88%
CCCc1nc2ccc(NC(=O)c3cccs3)cc2c(=O)n1Cc1ccccc1Cl | -1.29%
Cc1ccc(S(=O)(=O)N2CCC(=O)N(C(CO)C(C)C)CC2)cc1 (stereo not drawn) | 6.9%
Cc1ccc(CN2C(=O)N/C(=C/c3cc(C)n(-c4ccccn4)c3C)C2=O)cc1 | 10.7%
Cc1ccc(/C=C/C(=O)O)cc1S(=O)(=O)NCCO | 7.82%
COc1ccc(CC(=O)NC2=NCCS2)cc1 | 0.418%
NC(=O)CC(NC(=O)Cc1ccc(Cl)cc1)c1ccc(NCC2CC2)c([N+](=O)[O-])c1 (stereo not drawn) | -4.57%
Cc1csc(SCC(=O)Nc2ccccn2)n1 | -7.68%
CC(=O)c1ccccc1OC(=O)c1c(F)cccc1F | 10.9%
CCOC(=O)CNC(=O)Cc1ccc(OC)cc1 | 21.3%
NNC(=O)Cc1csc(-c2ccccc2)n1 | 8.66%
COC(=O)CCCCC1SCC(NC(=O)c2ccccc2)C1OC(C)=O (stereo not drawn) | 6.09%
CCc1cccc(CC)c1NC(=O)C(CC)Sc1nc2ccncc2[nH]1 (stereo not drawn) | 8.77%
CC(C)(C)C(=O)/C=C1\NC(=O)CS1 | 12%
COc1ccc(NC(=O)CN(C)S(=O)(=O)c2ccccc2)cc1OC | 2.68%
CC1=NN2C(=N)/C(=C\c3cc(C)n(Cc4ccccc4)c3C)C(=O)N=C2S1 | 12.2%
